Source: PubChem BioAssay AID686978 (National Center for Advancing Translational Sciences (NCATS), 2013)
“And” between values parts separate entries of the source, which are not always exact repeats. Equal values may be shown once. The whole screen tested about 420,000 compounds, of which about 64,000 (15%) were called active. Inconclusive results, whose numbers are uncertain, are shown with a selection of clear calls. Calls follow the shape of the dose curve; as a rule, active = well fitted inhibition curve with a large enough effect; inconclusive = small, poorly fitted or top-dose-only effect; inactive = flat fitted curve, though single readings scatter. Potencies beside an inconclusive call are fits to weak or partial responses and may not hold up.

Experiment: qHTS for Inhibitors of human tyrosyl-DNA phosphodiesterase 1 (TDP1): qHTS in cells in absence of CPT; also: nearly all actives have a fitted effect of over 55% in size
Details: DT40 Tdp1-/- hTDP1 cells, no CPT, ATP luminescence, 48 h; activity change, negative = growth inhibition: at 46.2 µM (top of the series) unless noted
Method in brief: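 Luminescent ATP content (CellTiter-Glo) served as the growth readout. Knockout chicken DT40 cells expressing human TDP1 were exposed to compounds without camptothecin for a minimum 48 hr at 37 °C.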
% is scaled to controls: 0 for no effect and ±100 for the full control effect; potency is read from the fitted curve at half-maximal effect; tags tell the direction and shape of the fitted curve.

Q: For `CN(Cc1nc(-c2ccc(Cl)cc2)no1)C(=O)c1ccco1`, which activity change, negative = growth inhibition is on record?
A: inconclusive: -31.8% [inhibitor]

Q: With `O=C(O)CCC(=O)OCc1c(-c2ccccc2)ncc2ccccc12` as the compound, how does the Potency read?
A: inactive

Q: With `CC12CCC(=O)N1C(C(=O)NCCc1ccccc1)CS2` (stereo unspecified) as the compound, how does the Potency read?
A: inactive

Q: With `CC(C)C[C@H]1CN=C(Nc2ccccc2)N1CCCC1CCCCC1` as the compound, how does the Potency read?
A: active: 18.4 µM

Q: For `C/C(=N\Nc1cc(C)nc(-c2ccccc2O)n1)c1ccccc1`, which Potency is on record?
A: inconclusive: 7.31 µM [inhibitor, single point]

Q: Which Potency does the source give for `CC(=O)c1ccc(NC(=O)C2CCCN(c3ncnc4c3nc3n4CCCCC3)C2)cc1` (stereo unspecified) here?
A: active: 13 µM

Q: With `N#C/C(=C/c1ccc(Br)o1)C(N)=O` as the compound, how does the activity change, negative = growth inhibition read?
A: inconclusive: -33.3% [inhibitor]

Q: For `O=C(NCCN1CCN(c2ccccc2)CC1)Nc1ccccc1Br`, which Potency is on record?
A: inconclusive: 18.4 µM [inhibitor, partial curve] and inconclusive: 29.1 µM [inhibitor, single point]

Q: For `N#Cc1c(N2CCOCC2)nc(N2CCCCC2)c2c1CCN(C1CCCCC1)C2`, which Potency is on record?
A: inconclusive: 29.1 µM [inhibitor, single point]

Q: With `NC(=O)C1=C[C@H](c2coc3ccccc3c2=O)C[C@H](OCc2ccc(CO)cc2)O1` as the compound, how does the Potency read?
A: inactive

Q: Which Potency does the source give for `Cc1c(Cl)cccc1NC(=S)C(=C([O-])c1ccc(Cl)s1)[n+]1ccccc1` here?
A: inconclusive: 23.1 µM [inhibitor, single point]

Q: For `CC(C)(C)c1ccccc1OCC(O)CN1CCN(c2ccccn2)CC1` (stereo unspecified), which Potency is on record?
A: inconclusive: 29.1 µM [inhibitor, single point]

Q: Which Potency does the source give for `Cc1ccc(NS(=O)(=O)c2cccc([N+](=O)[O-])c2)nc1` here?
A: inactive

Q: Which activity change, negative = growth inhibition does the source give for `Cn1c2c(c(=O)n(C)c1=O)CN(CCc1ccccc1)CN2` here?
A: inconclusive: -30.3% [inhibitor]

Q: Which Potency does the source give for `C=CCN1C(=O)C(Cc2ccc(Br)cc2)S/C1=N\N=C\c1ccco1` (stereo unspecified) here?
A: inconclusive: 16.4 µM [inhibitor, single point]

Q: With `COc1ccc(CC(=O)NC(C)c2nnc(SCC(=O)c3ccc(Br)cc3)n2C)cc1` (stereo unspecified) as the compound, how does the Potency read?
A: inconclusive: 20.6 µM [inhibitor, partial curve, poor fit]

Q: Which Potency does the source give for `Cc1ccc2nc3n(c(=O)c2c1)-c1ncccc1C(=O)NC3Cc1ccc(O)cc1` (stereo unspecified) here?
A: inactive

Q: With `Cc1onc(-c2ccccc2)c1-c1ccc(S(N)(=O)=O)cc1` as the compound, how does the Potency read?
A: inconclusive: 16.8 µM [inhibitor, single point]

Q: Which Potency does the source give for `CCCCC/C=N/NC(=O)c1[nH]c2ccc([N+](=O)[O-])cc2c1C` here?
A: inconclusive: 14.6 µM [inhibitor, single point]

Q: With `C/C(N)=C(/C#N)C(=O)CSc1nc2ccccc2c(=O)n1Cc1ccc(F)cc1` as the compound, how does the Potency read?
A: inconclusive: 20.6 µM [inhibitor, partial curve]

Q: For `C=CCNC(=O)/C(C#N)=C/c1ccc(C)o1`, which Potency is on record?
A: inactive

Q: With `Cc1ccc(Sc2c(C)nn(C(=O)COc3ccc(F)cc3)c2C)cc1` as the compound, how does the Potency read?
A: inactive

Q: For `Cc1cccc(NC(=S)N(CCN2CCOCC2)Cc2ccccc2F)c1`, which Potency is on record?
A: inconclusive: 20.6 µM [inhibitor, single point]

Q: Which Potency does the source give for `Cc1cccc(CNC(=O)C2CCN(c3nnc(-n4c(C)ccc4C)s3)CC2)c1` here?
A: active: 16.4 µM

Q: For `Cc1ccc(NC(=O)COc2ccccc2)cc1S(=O)(=O)N1CCCCC1`, which Potency is on record?
A: inconclusive: 29.1 µM [inhibitor, single point]

Q: For `O=S(=O)(c1ccc2c(c1)CCCC2)N1CCNCC1`, which Potency is on record?
A: inactive

Q: For `COc1ccc(Cl)cc1NC(=O)CCS(=O)(=O)c1ccc(Br)cc1`, which Potency is on record?
A: inconclusive: 29.1 µM [inhibitor, single point]

Q: For `O=C(NNC(=S)NC(=O)c1ccc(Br)cc1)c1cccc([N+](=O)[O-])c1`, which Potency is on record?
A: active: 16.4 µM

Q: With `Cc1ccc2nc(-c3ccc(Cl)cc3)c(Cc3ccccc3C(F)(F)F)n2c1` as the compound, how does the Potency read?
A: inconclusive: 23.1 µM [inhibitor, single point]

Q: For `N#CCCn1c(=O)c(-c2ccccc2)nc2cnc(OCc3ccccc3)nc21`, which Potency is on record?
A: inconclusive: 25.9 µM [inhibitor, single point]

Q: Which Potency does the source give for `Cc1ccc(N2CC(NC(=O)c3ccc(S(=O)(=O)N4CCOCC4)cc3)CC2=O)cc1C` (stereo unspecified) here?
A: inconclusive: 29.1 µM [inhibitor, single point]

Q: With `COc1ccc(/C=N\NC(=O)c2ccc(F)cc2)cc1COc1cc(F)ccc1[N+](=O)[O-]` as the compound, how does the Potency read?
A: inconclusive: 13 µM [inhibitor, partial curve]

Q: With `CCn1ccnc1CN1CCCC(C(=O)c2ccc3c4c(cccc24)CC3)C1` (stereo unspecified) as the compound, how does the Potency read?
A: active: 4.61 µM

Q: Which Potency does the source give for `COc1ccc(CCC(=O)Nc2ccc(S(=O)(=O)N3CCCC3)cc2)cc1OC` here?
A: inactive

Q: For `CCC(C)NCc1ccc(C(=O)OC)o1` (stereo unspecified), which Potency is on record?
A: inconclusive: 23.1 µM [inhibitor, partial curve]

Q: For `CN(C)CCCCOc1ccccc1-c1ccccc1`, which Potency is on record?
A: inconclusive: 29.1 µM [inhibitor, single point]

Q: For `CO/N=C/C(=N\Nc1ccccc1)C(=O)c1ccccc1`, which Potency is on record?
A: inconclusive: 29.1 µM [inhibitor, single point]

Q: With `O=C(O)c1ccc(N2CCCCCC2)c(N2C(=O)c3ccccc3C2=O)c1` as the compound, how does the Potency read?
A: inactive

Q: For `CCN(c1ccc(C)cc1)S(=O)(=O)c1nnc(NC(=O)c2ccco2)s1`, which Potency is on record?
A: inactive

Q: Which Potency does the source give for `CN(c1ccc(F)cc1)S(=O)(=O)c1ccc(Cl)c(C(=O)Nc2ccc3c(c2)CCC3)c1` here?
A: active: 3.66 µM

Q: For `COc1ccc(CNC(=O)c2c(C)oc3c2C(=O)c2ccccc2C3=O)cc1`, which Potency is on record?
A: active: 10.3 µM

Q: Which activity change, negative = growth inhibition does the source give for `CCC1Oc2ccc(C)cc2N(CC(=O)NCc2ccco2)C1=O` (stereo unspecified) here?
A: inconclusive: -31.1% [inhibitor]

Q: For `CC(C)(Oc1ccc(Cl)cc1)C(=O)O/N=C(\N)c1ccncc1`, which Potency is on record?
A: inconclusive: 29.1 µM [inhibitor, single point]

Q: For `O=C(NCCCCCCNC(=O)c1cncc(O)c1)c1cncc(O)c1`, which Potency is on record?
A: inactive

Q: With `CCCCc1nnc(NC(=O)CSc2nc(O)c(Cc3ccccc3)c(=O)[nH]2)s1` as the compound, how does the Potency read?
A: inconclusive: 9.2 µM [inhibitor, partial curve]

Q: With `COc1ccc(CN(Cc2ccccc2)C(=O)CN2CCN(C)CC2)cc1COc1ccc(NC(C)=O)cc1` as the compound, how does the Potency read?
A: active: 17.8 µM
